These are yes or no findings as the source states them, for the method shown. In cells and extracts the contact can be indirect. Some binding calls cover weakened binding; strength is not graded here.
Legend:
[1] = target: YFP-Epac2, expressed in HEK293 cells (UniProt Q8WZA2); test: co-IP; GFP-Trap_A beads, 2 hrs, with HEK293 lysates (10 mM Tris-HCl pH 7.5, 150 mM NaCl, 1 mM EDTA, 0.5% NP-40); western blot with impβ1 and GFP antibodies
[2] = target: YFP-Epac1 (exchange protein directly activated by cAMP-1), expressed in HEK293 cells (UniProt O95398); test: as above
[3] = target: importin β1 (impβ1), endogenous in HEK293 cells (human (endogenous in HEK293)) (UniProt Q14974); test: co-IP; impβ1 antibody (1 μg, 1 hr, 4 °C) and protein G-sepharose with lysates of cells expressing HA-Epac1 or control vector, pre-cleared with IgG; western blot with impβ1 and Epac1 antibodies
[4] = target: Epac1, endogenous in EA.hy926 cells (human (endogenous in EA.hy926)) (UniProt O95398); test: co-IP; endogenous Epac1 precipitated with Epac1 antibody (A-5, 1 μg, overnight) and protein A-sepharose from EA.hy926 lysates pre-cleared with IgG; western blot with Epac1 and impβ1 antibodies
[5] = target: YFP-Epac1, expressed in N2A cells (UniProt O95398); test: co-IP; GFP-Trap_A beads with N2A lysates; western blot for impβ1; in Fig. 2B cells treated with vehicle or 10 μM 8-pCPT-AM for 15 min (the agonist reduced the interaction)

Chains of the proteins cited; added tags and fusions are not shown. Lines headed by an entry give the natural chain unless they say otherwise; changes in a name come on top. Residues count along the entry.
UniProt Q8WZA2: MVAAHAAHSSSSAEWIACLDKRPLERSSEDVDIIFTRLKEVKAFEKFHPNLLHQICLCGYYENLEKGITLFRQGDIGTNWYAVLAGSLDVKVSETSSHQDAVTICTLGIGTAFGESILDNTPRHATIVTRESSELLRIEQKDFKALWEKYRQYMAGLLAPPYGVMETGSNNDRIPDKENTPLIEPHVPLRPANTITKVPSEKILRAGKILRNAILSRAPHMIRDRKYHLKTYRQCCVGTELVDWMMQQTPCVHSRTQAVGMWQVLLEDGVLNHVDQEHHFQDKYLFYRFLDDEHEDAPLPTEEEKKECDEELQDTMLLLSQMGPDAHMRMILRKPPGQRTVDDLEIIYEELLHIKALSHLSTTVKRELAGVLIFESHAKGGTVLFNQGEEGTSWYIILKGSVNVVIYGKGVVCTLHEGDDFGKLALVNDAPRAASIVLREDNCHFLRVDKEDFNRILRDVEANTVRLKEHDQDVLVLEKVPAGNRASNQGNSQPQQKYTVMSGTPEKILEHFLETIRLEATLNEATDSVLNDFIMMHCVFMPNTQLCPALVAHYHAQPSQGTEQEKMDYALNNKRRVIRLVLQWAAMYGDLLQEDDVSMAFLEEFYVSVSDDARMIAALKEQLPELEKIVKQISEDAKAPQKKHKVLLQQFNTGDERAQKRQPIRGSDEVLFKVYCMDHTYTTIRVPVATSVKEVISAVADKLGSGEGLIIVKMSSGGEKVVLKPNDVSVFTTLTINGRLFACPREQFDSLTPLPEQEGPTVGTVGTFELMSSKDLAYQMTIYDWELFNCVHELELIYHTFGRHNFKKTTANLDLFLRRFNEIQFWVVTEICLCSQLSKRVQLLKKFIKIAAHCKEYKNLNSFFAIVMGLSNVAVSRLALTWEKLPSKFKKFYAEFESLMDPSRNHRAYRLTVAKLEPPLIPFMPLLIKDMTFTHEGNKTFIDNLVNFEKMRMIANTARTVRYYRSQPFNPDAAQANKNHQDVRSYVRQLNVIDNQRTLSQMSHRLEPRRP
UniProt O95398, residues 43-923: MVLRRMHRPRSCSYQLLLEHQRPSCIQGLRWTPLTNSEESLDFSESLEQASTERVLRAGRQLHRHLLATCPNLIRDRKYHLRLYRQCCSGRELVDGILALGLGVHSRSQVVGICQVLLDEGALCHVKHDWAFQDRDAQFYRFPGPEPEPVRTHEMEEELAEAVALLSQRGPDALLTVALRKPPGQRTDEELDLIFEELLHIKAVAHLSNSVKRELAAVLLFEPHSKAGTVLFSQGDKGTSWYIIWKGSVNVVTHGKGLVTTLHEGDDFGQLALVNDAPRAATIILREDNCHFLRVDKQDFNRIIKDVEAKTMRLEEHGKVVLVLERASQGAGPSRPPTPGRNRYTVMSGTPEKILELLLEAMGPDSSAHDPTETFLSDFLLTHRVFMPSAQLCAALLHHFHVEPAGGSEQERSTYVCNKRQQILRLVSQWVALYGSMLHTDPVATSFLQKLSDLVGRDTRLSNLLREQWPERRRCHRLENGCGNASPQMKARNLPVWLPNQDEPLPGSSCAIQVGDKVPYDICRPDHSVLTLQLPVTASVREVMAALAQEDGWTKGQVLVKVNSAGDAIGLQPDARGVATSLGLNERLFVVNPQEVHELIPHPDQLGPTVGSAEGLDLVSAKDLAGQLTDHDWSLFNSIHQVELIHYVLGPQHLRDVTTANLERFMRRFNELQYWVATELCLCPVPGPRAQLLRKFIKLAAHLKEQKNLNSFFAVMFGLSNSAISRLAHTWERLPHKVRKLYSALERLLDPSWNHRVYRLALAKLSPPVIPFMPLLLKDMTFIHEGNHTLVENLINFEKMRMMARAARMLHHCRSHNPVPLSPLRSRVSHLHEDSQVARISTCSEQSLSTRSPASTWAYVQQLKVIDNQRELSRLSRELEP
UniProt Q14974: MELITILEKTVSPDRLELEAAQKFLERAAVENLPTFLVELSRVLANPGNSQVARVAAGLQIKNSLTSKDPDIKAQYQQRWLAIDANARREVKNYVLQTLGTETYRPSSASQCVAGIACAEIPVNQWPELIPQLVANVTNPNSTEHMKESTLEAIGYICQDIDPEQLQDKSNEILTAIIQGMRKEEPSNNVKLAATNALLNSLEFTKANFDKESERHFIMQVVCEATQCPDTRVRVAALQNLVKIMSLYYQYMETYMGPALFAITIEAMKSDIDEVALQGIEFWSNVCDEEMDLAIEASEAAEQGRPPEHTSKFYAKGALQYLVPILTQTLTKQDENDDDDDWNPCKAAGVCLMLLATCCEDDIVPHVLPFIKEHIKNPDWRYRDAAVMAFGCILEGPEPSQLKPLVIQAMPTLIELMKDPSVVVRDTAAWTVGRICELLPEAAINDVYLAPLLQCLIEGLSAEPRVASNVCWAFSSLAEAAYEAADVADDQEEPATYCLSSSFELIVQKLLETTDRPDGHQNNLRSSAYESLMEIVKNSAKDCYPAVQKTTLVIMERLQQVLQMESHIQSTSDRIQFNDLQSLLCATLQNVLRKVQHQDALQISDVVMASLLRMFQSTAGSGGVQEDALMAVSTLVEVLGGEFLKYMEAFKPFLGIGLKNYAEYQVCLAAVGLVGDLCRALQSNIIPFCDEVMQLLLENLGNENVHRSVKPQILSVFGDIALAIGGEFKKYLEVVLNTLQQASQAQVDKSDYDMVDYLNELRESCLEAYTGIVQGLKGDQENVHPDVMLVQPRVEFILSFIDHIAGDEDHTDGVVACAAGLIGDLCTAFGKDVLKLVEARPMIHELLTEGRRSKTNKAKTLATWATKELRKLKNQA
UniProt P70168: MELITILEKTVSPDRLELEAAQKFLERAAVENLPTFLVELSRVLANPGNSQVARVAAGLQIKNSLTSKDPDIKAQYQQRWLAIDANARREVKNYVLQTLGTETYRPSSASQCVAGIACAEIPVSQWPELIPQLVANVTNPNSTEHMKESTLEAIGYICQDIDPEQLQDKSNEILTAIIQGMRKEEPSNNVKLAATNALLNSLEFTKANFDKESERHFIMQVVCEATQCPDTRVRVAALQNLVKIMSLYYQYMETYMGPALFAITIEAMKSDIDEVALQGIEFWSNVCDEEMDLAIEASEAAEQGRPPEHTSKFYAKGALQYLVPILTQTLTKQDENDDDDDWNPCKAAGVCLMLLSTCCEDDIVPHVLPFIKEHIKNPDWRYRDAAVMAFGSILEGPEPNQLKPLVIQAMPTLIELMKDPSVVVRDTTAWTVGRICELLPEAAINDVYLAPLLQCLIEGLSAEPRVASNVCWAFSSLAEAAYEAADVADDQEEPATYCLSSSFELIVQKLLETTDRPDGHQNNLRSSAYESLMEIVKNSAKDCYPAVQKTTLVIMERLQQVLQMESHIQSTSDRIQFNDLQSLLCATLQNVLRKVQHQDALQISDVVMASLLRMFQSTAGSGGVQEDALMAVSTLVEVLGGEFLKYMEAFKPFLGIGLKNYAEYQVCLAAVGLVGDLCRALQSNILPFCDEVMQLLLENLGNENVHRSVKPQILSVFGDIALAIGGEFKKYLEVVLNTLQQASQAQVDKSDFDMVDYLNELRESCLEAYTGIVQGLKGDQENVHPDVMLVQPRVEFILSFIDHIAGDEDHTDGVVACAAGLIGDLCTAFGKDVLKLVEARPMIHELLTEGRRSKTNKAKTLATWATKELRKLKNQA

importin β1 (impβ1), endogenous in HEK293 cells (from UniProt Q14974 1-876)
binding [1]: no binding
binding [2]: binds

HA-Epac1 (from UniProt O95398-3 1-881)
binding [3]: binds

importin β1 (impβ1), endogenous in EA.hy926 cells (from UniProt Q14974 1-876)
binding [4]: binds

importin β1 (impβ1), endogenous in N2A cells (from UniProt P70168 1-876)
binding [5]: binds
